Experimental data: paper PMC7540527, “Synthesis of Antiviral Perfluoroalkyl Derivatives of Teicoplanin and Vancomycin” (Chemmedchem, 2020)
Converted amounts (≈) assume the structure as drawn.

Test system: not given
Test: not given
Format: physicochemical
Conditions: not given
Protocol: In addition to NMR structure validation (see the Supporting Information, including ^13C HSQC, HMBC, ^13C and ^19F spectra and spectral assignments) we tested compound 17 for possible oligomerization. […] About 20 mg of sample 17 was dissolved in 500 μL MeOD and measured at 300 K temperature. Spectra were recorded with 32 or 64 linear gradient steps and evaluated with topspin 2.1 software using inverse Laplace transformation to obtain diffusion domain. These experiments yielded MW between 7–8 kDa when referenced to internal TMS. (Figure S1). However, in repeated measurements with ∼3 mg of 17 dissolved in MeOD and referenced to internal β‐CD, DOSY yielded only 2.4 kDa mass for 17, that is closer to monomeric state (Figure S2). In control DOSY experiments of teicoplanin and vancomycin dissolved in [D6]DMSO with β‐CD mass reference, DOSY yielded the monomeric molecular masses as expected.

Compound	Solubility in water
CC(=O)NC1C(OC2c3ccc(c(Cl)c3)Oc3cc4cc(c3O)Oc3ccc(cc3Cl)CC3NC(=O)C(n5cc(COCCOCCCC(F)(F)C(F)(F)C(F)(F)C(F)(F)C(F)(F)C(F)(F)C(F)(F)C(F)(F)F)nn5)c5ccc(O)c(c5)Oc5cc(O)cc(c5)C(NC3=O)C(=O)NC4C(=O)NC3C(=O)NC2C(=O)NC(C(=O)O)c2cc(O)cc(O)c2-c2cc3ccc2O)OC(CO)C(O)C1O (stereo not drawn) [Compound 17]	not soluble in water

Test system: S. epidermidis mecA
Test: microbe, parasite or virus in culture
Format: cell-based, Staphylococcus epidermidis
Conditions: Staphylococcus epidermidis, read-out: MIC S. epidermidis mecA
Protocol: Compounds 1 b,40 8,29 9 30 and 14 18 were synthesized according to the literature. Compound 1 a was purchased from Sigma‐Aldrich, nonafluoro‐1‐iodobutane from TCI and heptadecafluoro‐1‐iodooctane from Alfa Aesar. TLC was performed on Kieselgel 60 F254 (Merck) with detection either by immersing into ammonium molybdate‐sulfuric acid solution followed by heating or by using Pauly's reagent for detection. Flash column chromatography was performed using Silica gel 60 (Merck 0.040–0.063 mm). The photoinitiated reactions were carried out in a borosilicate vessel by irradiation with a Hg lamp giving maximum emission at 365 nm. The ^1H NMR (500, 400 and 360 MHz) ^13C NMR (125, 100 and 90 MHz) and 2D NMR spectra were recorded with a Bruker DRX‐360, Bruker DRX‐400 and Bruker Avance II 500 spectrometer at 298 or 300 K. For DOSY (Diffusion Ordered Spectroscopy) experiments, Bruker AVANCE‐II, 500 MHz spectrometer was applied, with manufacturer‘s “ledbpgp2 s” pulse sequence. Chemical shifts are referenced to Me4Si (0.00 ppm for ^1H) and to the solvent residual signals. MALDI‐TOF MS analyses of the compounds were carried out in the positive reflectron mode (20 kV) using a BIFLEX III mass spectrometer (Bruker) equipped with delayed‐ion extraction. A nitrogen laser (337 nm, 3 ns pulse width, 106–107 W/cm^2) operating at 4 Hz was applied to produce laser desorption. 2,5‐Dihydroxybenzoic acid (DHB) was used as matrix and F3CCOONa as cationizing agent in DMF. ESI‐QTOF MS measurements were carried out on a maXis II UHR ESI‐QTOF MS instrument (Bruker), in positive ionization mode. The following parameters were applied for the electrospray ion source: capillary voltage: 3.5 kV; end plate offset: 500 V; nebulizer pressure: 0.8 bar; dry gas temperature: 200 °C and dry gas flow rate: 4.5 L/min. Constant background correction was applied for each spectrum, the background was recorded before each sample by injecting the blank sample matrix (solvent). Na‐formate calibrant was injected after each sample, which enabled internal calibration during data evaluation. Mass spectra were recorded by otofControl version 4.1 (build: 3.5, Bruker) and processed by Compass DataAnalysis version 4.4 (build: 200.55.4). The antibacterial evaluations were carried out as it was described in our previous publication.27b

Compound	MIC [µg/mL]
CC(C)C[C@H](C(=O)N[C@H]1C(=O)N[C@@H](CC(N)=O)C(=O)N[C@H]2C(=O)N[C@H]3C(=O)N[C@H](C(=O)N[C@H](C(=O)O)c4cc(O)cc(O)c4-c4cc3ccc4O)[C@H](O)c3ccc(c(Cl)c3)Oc3cc2cc(c3O)Oc2ccc(cc2Cl)[C@H]1O)n1cc(COCCOCCOCCOCCOCCCC(F)(F)C(F)(F)C(F)(F)C(F)(F)F)nn1 [Compound 12]	8 (≈ 4.85 µM)
CC(C)C[C@H](C(=O)N[C@H]1C(=O)N[C@@H](CC(N)=O)C(=O)N[C@H]2C(=O)N[C@H]3C(=O)N[C@H](C(=O)N[C@H](C(=O)O)c4cc(O)cc(O)c4-c4cc3ccc4O)[C@H](O)c3ccc(c(Cl)c3)Oc3cc2cc(c3O)Oc2ccc(cc2Cl)[C@H]1O)n1cc(COCCOCCOCCOCCOCCCC(F)(F)C(F)(F)C(F)(F)C(F)(F)C(F)(F)C(F)(F)C(F)(F)C(F)(F)F)nn1 [Compound 13]	8 (≈ 4.33 µM)
CC(=O)NC1C(OC2c3ccc(c(Cl)c3)Oc3cc4cc(c3O)Oc3ccc(cc3Cl)CC3NC(=O)C(n5cc(COCCOCCCC(F)(F)C(F)(F)C(F)(F)C(F)(F)F)nn5)c5ccc(O)c(c5)Oc5cc(O)cc(c5)C(NC3=O)C(=O)NC4C(=O)NC3C(=O)NC2C(=O)NC(C(=O)O)c2cc(O)cc(O)c2-c2cc3ccc2O)OC(CO)C(O)C1O (stereo not drawn) [Compound 15]	0.5 (≈ 0.28 µM)
CC(=O)NC1C(OC2c3ccc(c(Cl)c3)Oc3cc4cc(c3O)Oc3ccc(cc3Cl)CC3NC(=O)C(n5cc(COCCOCCOCCOCCOCCCC(F)(F)C(F)(F)C(F)(F)C(F)(F)F)nn5)c5ccc(O)c(c5)Oc5cc(O)cc(c5)C(NC3=O)C(=O)NC4C(=O)NC3C(=O)NC2C(=O)NC(C(=O)O)c2cc(O)cc(O)c2-c2cc3ccc2O)OC(CO)C(O)C1O (stereo not drawn) [Compound 16]	0.5 (≈ 0.26 µM)
CC(=O)NC1C(OC2c3ccc(c(Cl)c3)Oc3cc4cc(c3O)Oc3ccc(cc3Cl)CC3NC(=O)C(n5cc(COCCOCCCC(F)(F)C(F)(F)C(F)(F)C(F)(F)C(F)(F)C(F)(F)C(F)(F)C(F)(F)F)nn5)c5ccc(O)c(c5)Oc5cc(O)cc(c5)C(NC3=O)C(=O)NC4C(=O)NC3C(=O)NC2C(=O)NC(C(=O)O)c2cc(O)cc(O)c2-c2cc3ccc2O)OC(CO)C(O)C1O (stereo not drawn) [Compound 17]	256 (≈ 129 µM)
CC(=O)NC1C(OC2c3ccc(c(Cl)c3)Oc3cc4cc(c3O)Oc3ccc(cc3Cl)CC3NC(=O)C(n5cc(COCCOCCOCCOCCOCCCC(F)(F)C(F)(F)C(F)(F)C(F)(F)C(F)(F)C(F)(F)C(F)(F)C(F)(F)F)nn5)c5ccc(O)c(c5)Oc5cc(O)cc(c5)C(NC3=O)C(=O)NC4C(=O)NC3C(=O)NC2C(=O)NC(C(=O)O)c2cc(O)cc(O)c2-c2cc3ccc2O)OC(CO)C(O)C1O (stereo not drawn) [Compound 18]	8 (≈ 3.77 µM)
CN[C@H](CC(C)C)C(=O)N[C@H]1C(=O)N[C@@H](CC(N)=O)C(=O)N[C@H]2C(=O)N[C@H]3C(=O)N[C@H](C(=O)N[C@H](C(=O)O)c4cc(O)cc(O)c4-c4cc3ccc4O)[C@H](O)c3ccc(c(Cl)c3)Oc3cc2cc(c3O[C@@H]2O[C@H](CO)[C@@H](O)[C@H](O)[C@H]2O[C@H]2C[C@](C)(N)[C@H](O)[C@H](C)O2)Oc2ccc(cc2Cl)[C@H]1O [VAN, vancomycin]	4 (≈ 2.76 µM)

Same assay, conditions: mecA gene expression

Compound	MIC S. epidermidis mecA [µg/mL]
teicoplanin [reference compound]	16
